This note sets out measurements from publication PMC12820563, “FoxP3 forms a head-to-head dimer in vivo and stabilizes its multimerization on adjacent microsatellites”.

Some of the results follow.

In the experiment the target is T1, MBP-FoxP1dN (Mus musculus, UniProt P58462 326-579).
T1 sequence: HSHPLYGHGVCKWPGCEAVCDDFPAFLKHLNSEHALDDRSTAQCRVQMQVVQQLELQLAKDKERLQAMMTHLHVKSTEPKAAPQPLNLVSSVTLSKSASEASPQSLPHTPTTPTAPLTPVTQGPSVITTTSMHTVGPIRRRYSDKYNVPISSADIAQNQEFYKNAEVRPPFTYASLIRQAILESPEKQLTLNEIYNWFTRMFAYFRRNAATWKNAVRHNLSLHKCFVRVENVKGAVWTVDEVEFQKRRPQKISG
As to the kind of experiment: PD-seq (MBP pull-down with sequencing); 20 mM Tris-HCl pH 7.5, 100 mM NaCl, 1.5 mM MgCl2, 0.4 uM protein, 0.1 uM dsDNA library, 30 min, room temperature, amylose pull-down; high values mean tight binding. The settings on record: protein: recombinant; tags: His6-MBP; chain copies: 2; dsDNA, one strand shown. The essentials:
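Binding is reads-per-million enrichment of pull-down over input, with replicates pooled. It comes from 30 min room-temperature incubation in Tris pH 7.5 buffer with NaCl and MgCl2 of 0.4 µM His6-MBP-tagged, N-terminally truncated mouse FoxP3 or FoxP1 fragment from E. coli with 0.1 µM Klenow-filled degenerate double-stranded DNA library, followed by amylose resin capture, three washes and Illumina sequencing of the released DNA.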
Turning to “GATGATTGTTCTCCCAGCTGATGAATTGCCCTTTTCGAGTAAACAAATTTTCCTAATCTTTCTGTTCAAGCGCCATCTAC”, the binding signal is 1 RPM ratio (pull-down/input).

On to “GATGATTGTTCTCCCAGCTGATGAATTGACACAGTCGAGTAAACAAATTTTCCTAATCTTTCTGTTCAAGCGCCATCTAC”, for which the binding signal was 1.17 RPM ratio (pull-down/input).

Consider “GATGATTGTTCTCCCAGCTGATGAATTACCGCGTTCGAGTAAACAAATTTTCCTAATCTTTCTGTTCAAGCGCCATCTAC”, for which the binding signal was 1.04 RPM ratio (pull-down/input).

Take “GATGATTGTTCTCCCAGCTGATGAATTTAGTGTGTCGAGTAAACAAATTTTCCTAATCTTTCTGTTCAAGCGCCATCTAC”: the binding signal was 1.09 RPM ratio (pull-down/input).

Take “GATGATTGTTCTCCCAGCTGATGAATTTGAGTTTTCGAGTAAACAAATTTTCCTAATCTTTCTGTTCAAGCGCCATCTAC”: the binding signal was 1.01 RPM ratio (pull-down/input).

On to “GATGATTGTTCTCCCAGCTGATGAATTCGGATGATCGAGTAAACAAATTTTCCTAATCTTTCTGTTCAAGCGCCATCTAC”, for which the binding signal is 0.833 RPM ratio (pull-down/input).

“GATGATTGTTCTCCCAGCTGATGAATTGCATCGCTCGAGTAAACAAATTTTCCTAATCTTTCTGTTCAAGCGCCATCTAC”: the binding signal was 1.13 RPM ratio (pull-down/input).

“GATGATTGTTCTCCCAGCTGATGAATTCGACTTATCGAGTAAACAAATTTTCCTAATCTTTCTGTTCAAGCGCCATCTAC”: the binding signal was 0.872 RPM ratio (pull-down/input).

“GATGATTGTTCTCCCAGCTGATGAATTCGCAAGTTCGAGTAAACAAATTTTCCTAATCTTTCTGTTCAAGCGCCATCTAC”: the binding signal is 0.848 RPM ratio (pull-down/input).

On to “GATGATTGTTCTCCCAGCTGATGAATTAGTGATTTCGAGTAAACAAATTTTCCTAATCTTTCTGTTCAAGCGCCATCTAC”, for which the binding signal was 1.19 RPM ratio (pull-down/input).

On to “GATGATTGTTCTCCCAGCTGATGAATTAACCCAGTCGAGTAAACAAATTTTCCTAATCTTTCTGTTCAAGCGCCATCTAC”, for which the binding signal is 0.834 RPM ratio (pull-down/input).

On to “GATGATTGTTCTCCCAGCTGATGAATTTAGAATGTCGAGTAAACAAATTTTCCTAATCTTTCTGTTCAAGCGCCATCTAC”, for which the binding signal is 1.05 RPM ratio (pull-down/input).

As to “GATGATTGTTCTCCCAGCTGATGAATTAGATTAGTCGAGTAAACAAATTTTCCTAATCTTTCTGTTCAAGCGCCATCTAC”, the binding signal was 0.868 RPM ratio (pull-down/input).

On to “GATGATTGTTCTCCCAGCTGATGAATTTACTCCTTCGAGTAAACAAATTTTCCTAATCTTTCTGTTCAAGCGCCATCTAC”, for which the binding signal was 1.29 RPM ratio (pull-down/input).

For the sequence “GATGATTGTTCTCCCAGCTGATGAATTACTATTGTCGAGTAAACAAATTTTCCTAATCTTTCTGTTCAAGCGCCATCTAC”, the binding signal was 2.38 RPM ratio (pull-down/input).

With “GATGATTGTTCTCCCAGCTGATGAATTTCGGGCATCGAGTAAACAAATTTTCCTAATCTTTCTGTTCAAGCGCCATCTAC”, the binding signal was 0.959 RPM ratio (pull-down/input).

On to “GATGATTGTTCTCCCAGCTGATGAATTGAAAAAATCGAGTAAACAAATTTTCCTAATCTTTCTGTTCAAGCGCCATCTAC”, for which the binding signal is 1.03 RPM ratio (pull-down/input).

Consider “GATGATTGTTCTCCCAGCTGATGAATTTGGGTCCTCGAGTAAACAAATTTTCCTAATCTTTCTGTTCAAGCGCCATCTAC”, for which the binding signal was 0.846 RPM ratio (pull-down/input).

Take “GATGATTGTTCTCCCAGCTGATGAATTTCCATCCTCGAGTAAACAAATTTTCCTAATCTTTCTGTTCAAGCGCCATCTAC”: the binding signal was 0.827 RPM ratio (pull-down/input).

With “GATGATTGTTCTCCCAGCTGATGAATTCTCTTTGTCGAGTAAACAAATTTTCCTAATCTTTCTGTTCAAGCGCCATCTAC”, the binding signal is 0.834 RPM ratio (pull-down/input).

For “GATGATTGTTCTCCCAGCTGATGAATTTGTCAGCTCGAGTAAACAAATTTTCCTAATCTTTCTGTTCAAGCGCCATCTAC”, the binding signal is 0.895 RPM ratio (pull-down/input).

As for “GATGATTGTTCTCCCAGCTGATGAATTCTTCAGGTCGAGTAAACAAATTTTCCTAATCTTTCTGTTCAAGCGCCATCTAC”, the binding signal was 0.789 RPM ratio (pull-down/input).

On to “GATGATTGTTCTCCCAGCTGATGAATTTCATGGGTCGAGTAAACAAATTTTCCTAATCTTTCTGTTCAAGCGCCATCTAC”, for which the binding signal is 0.803 RPM ratio (pull-down/input).

Consider “GATGATTGTTCTCCCAGCTGATGAATTGTCCTTGTCGAGTAAACAAATTTTCCTAATCTTTCTGTTCAAGCGCCATCTAC”, for which the binding signal was 1.07 RPM ratio (pull-down/input).

On to “GATGATTGTTCTCCCAGCTGATGAATTATACCCATCGAGTAAACAAATTTTCCTAATCTTTCTGTTCAAGCGCCATCTAC”, for which the binding signal is 0.975 RPM ratio (pull-down/input).

As for “GATGATTGTTCTCCCAGCTGATGAATTAGCTGGCTCGAGTAAACAAATTTTCCTAATCTTTCTGTTCAAGCGCCATCTAC”, the binding signal is 0.774 RPM ratio (pull-down/input).

On to “GATGATTGTTCTCCCAGCTGATGAATTAGGCCAATCGAGTAAACAAATTTTCCTAATCTTTCTGTTCAAGCGCCATCTAC”, for which the binding signal is 0.998 RPM ratio (pull-down/input).

As for “GATGATTGTTCTCCCAGCTGATGAATTAGTTTTGTCGAGTAAACAAATTTTCCTAATCTTTCTGTTCAAGCGCCATCTAC”, the binding signal is 1.06 RPM ratio (pull-down/input).

Regarding “GATGATTGTTCTCCCAGCTGATGAATTAATTGTGTCGAGTAAACAAATTTTCCTAATCTTTCTGTTCAAGCGCCATCTAC”, the binding signal was 1.22 RPM ratio (pull-down/input).

With “GATGATTGTTCTCCCAGCTGATGAATTCACCGGCTCGAGTAAACAAATTTTCCTAATCTTTCTGTTCAAGCGCCATCTAC”, the binding signal was 0.823 RPM ratio (pull-down/input).

In the case of “GATGATTGTTCTCCCAGCTGATGAATTACCGTAGTCGAGTAAACAAATTTTCCTAATCTTTCTGTTCAAGCGCCATCTAC”, the binding signal was 0.941 RPM ratio (pull-down/input).

Regarding “GATGATTGTTCTCCCAGCTGATGAATTTATTTAGTCGAGTAAACAAATTTTCCTAATCTTTCTGTTCAAGCGCCATCTAC”, the binding signal is 1.76 RPM ratio (pull-down/input).
